Patent US3959283A, “Amino-derivatives of 1,4-benzodioxan” (Laboratoire L. Lafon, priority 1974, dated 1976)
Structures can show the parent of a compound that is named as a salt.

What was measured:
dogs [1] = experiment: Vasodilating properties of the product of Example 6 in anaesthetised dogs; assay type: in vivo
Procedure: When administered intra-arterially, the product of Example 6 is injected directly into the femoral artery. The flow rate is increased by 200% from a dose of 10 μg.

adrenergic receptors [2] = experiment: α-blocking activity of the product of Example 6; assay type: in vivo, dogs
Procedure: The product is α-blocking from a dose of 5 mg/kg administered intravenously.

adrenergic receptors [3] = experiment: Adrenolytic action of the product of Example 7 (reversal of the hypertension due to adrenalin); assay type: in vivo, dogs
dogs [4] = experiment: Cardiovascular action of the product of Example 7 in anaesthetised dogs; assay type: in vivo; details: i.v., from 2.5 mg/kg
adrenergic receptors [5] = experiment: Oral α-blocking activity in dogs (hypertensive effects of adrenalin); assay type: in vivo; details: orally
[6] = i.v. 2.5, 5 and 10 mg/kg, one test intraduodenal 10 mg/kg

CCC(=O)OCCN1CCN(CC2COc3ccccc3O2)CC1 (stereo not drawn) [Example 6, 1-[2-(1,4-Benzodioxanyl)-methyl]-4-[2-(propionyloxy)-ethyl]-piperazine dihydrochloride]
femoral flow rate effect (conclusion) (dogs [1]; conclusion): of short duration and is not reproducible
time to disappearance of the femoral flow effect (dogs [1]; [6]): 15 min
vertebral flow rate (dogs [1]; [6]): only increases in one of the two tests wherein the pulse rate was increased
increase in femoral flow rate (dogs [1]; injected into the femoral artery, from a dose of 10 μg): 200%
passage through the intestinal barrier (dogs [1]; intraduodenal): passes through the intestinal barrier
dose from which the product is α-blocking (adrenergic receptors [2]; i.v.): ≥ 5 mg/kg
dose at which activity is found again intraduodenally (adrenergic receptors [2]; intraduodenal): 10 mg/kg

CC(=O)OCCN1CCN(CC2COc3ccccc3O2)CC1 (stereo not drawn) [Example 7, 1-[2-(1,4-Benzodioxanyl)-methyl]-4-[2-acetyloxy)-ethyl]-piperazine dihydrochloride]
α-lytic action (conclusion) (adrenergic receptors [3]; conclusion): α-lytic
dose from which adrenolytic action is demonstrated (adrenergic receptors [3]; i.v., reversal of the hypertension due to adrenalin): ≥ 2.5 mg/kg
pulse rate (dogs [4]): does not vary markedly
arterial pressure effect (dogs [4]; both dogs): hypotension
left ventricular pressure (dogs [4]; both dogs): decrease
ratio dp/dt (dogs [4]; both dogs): decrease
systolic ejection time (dogs [4]; both dogs): decrease

OCCN1CCN(CC2COc3ccccc3O2)CC1 (stereo not drawn) [free base, 1-[2-(1,4-benzodioxanyl)-methyl]-4-(2-hydroxyethyl)-piperazine, reference compound]
α-blocking activity (adrenergic receptors [5]): does not show any α-blocking activity
